Source: PubChem BioAssay AID2326 (National Center for Advancing Translational Sciences (NCATS), 2010)
In all, about 270,000 compounds went through this assay and about 1,100 (0.41%) were called active. Inconclusive results (about 3%) are left out. Calls follow the shape of the full dose curve. A structure can be active in one record and inactive in another. The source holds more than one record for some entries. Only these are listed. An entry can have further records. Results that share an entry repeat one measurement in other runs, samples, wells, individuals or studies. Records carry a tag for their origin. Letters hold for one entry only.

Test: qHTS Assay for Inhibitors of Influenza NS1 Protein Function; also: actives are rising curves; nearly all actives have a fitted effect of over 50% in size
Details: series mostly up to 46.1 µM
From the text: NIH Chemical Genomics Center [NCGC]
NIH Molecular Libraries Probe Centers Network [MLPCN]
Assay Submitter (PI): Daniel Engel
Influenza is a world-wide public health problem and emerging forms of the virus have the potential to cause a pandemic of equal or greater magnitude to the outbreaks recorded in 1918, 1957 or 1968. Vaccine development is proceeding and there also exist two classes of anti-influenza compounds. However these therapeutic modalities are neither fully effective nor widely enough available to fulfill global needs. In addition their potential usefulness against newly emergent strains is not known. Efforts are needed to develop novel agents against influenza virus, including broad-spectrum agents. Identification of small molecules that inhibit NS1 function either directly or by interfering with specific cellular pathways may be a key to increasing our defense against the virus.
We have miniaturized and optimized a cell based assay in which NS1 from influenza A is expressed in the budding yeast S. cerevisiae. NS1 is a multi-functional protein that counters the host innate immune response and facilitates viral versus cellular gene expression. Expression of NS1 causes a pronounced slow growth phenotype in yeast due to its intrinsic molecular activities. […]
9. Read plate using Viewlux protocol for optical density 600 (OD600) using excitation filter 600nm.
Potency is read from the fitted curve at half-maximal effect.

SMILES | Potency
O=C(Cn1c(=O)sc2ccccc21)Nc1nc2c(s1)CCCC2 | inactive [sample A] and active: 1 µM [sample B]
